This is one part of the list.
Legend:
[1] = test system: HSkMC (human skeletal muscle cells); experiment: cytotoxicity call (relative viability < 0.9); details: 10 µM
[2] = test system: HepG2; experiment: cytotoxicity call (relative viability < 0.9); details: 10 µM
[3] = test system: S. aureus RN4220; experiment: growth inhibition call (relative growth <= 0.2); details: 50 µM

Cc1cc(N2CCN(C)CC2)ncn1
inactive: cytotoxicity call [1] | cytotoxicity call [2] | growth inhibition call [3]

COc1ccc2c(c1OC)C(=O)OC2C1c2cc3c(cc2CCN1C)OCO3 (configuration not stated)
inactive: cytotoxicity call [1] | cytotoxicity call [2] | growth inhibition call [3]

Cc1cc(O[C@@H]2O[C@H](CO)[C@@H](O)[C@H](O)[C@H]2O)c2c3c(c(=O)oc2c1)CCC3
inactive: cytotoxicity call [1] | cytotoxicity call [2] | growth inhibition call [3]

C[C@@H]1CN([C@@H](C)CO)C(=O)c2cc(NC(=O)Nc3ccccc3)ccc2O[C@@H](C)CCCCO[C@H]1CN(C)C(=O)Oc1ccccc1
inactive: cytotoxicity call [1] | cytotoxicity call [2] | growth inhibition call [3]

Reference: the antibiotic and cytotoxicity screens of Wong et al. (2023)
